Data: PubChem BioAssay AID1346428 (National Center for Advancing Translational Sciences (NCATS), 2018)
The whole screen tested about 48,000 compounds, of which about 1,200 (2.5%) were called active. Inconclusive results (about 2%) are left out.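 Rule for the calls: active = activation of at least 60% and not above a set upper limit (about 1 call in 100 departs from these limits); inconclusive = activation of 40% to 60%, or above that upper limit; inactive = activation under 40%.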 This is one part of the list.

These compounds were tested against Probable G-protein coupled receptor 32 (Homo sapiens) (UniProt O75388) (assay: qHTS for Agonists of Human Resolvin D1 Receptor DRV1). Conditions: CHO-K1 GPR32 beta-arrestin PathHunter luminescence, 90 min; at 76.9 µM; stronger effect = higher value; zero percent set by DMSO-only wells.
Chain of UniProt O75388 (O75388 whole entry, looked up): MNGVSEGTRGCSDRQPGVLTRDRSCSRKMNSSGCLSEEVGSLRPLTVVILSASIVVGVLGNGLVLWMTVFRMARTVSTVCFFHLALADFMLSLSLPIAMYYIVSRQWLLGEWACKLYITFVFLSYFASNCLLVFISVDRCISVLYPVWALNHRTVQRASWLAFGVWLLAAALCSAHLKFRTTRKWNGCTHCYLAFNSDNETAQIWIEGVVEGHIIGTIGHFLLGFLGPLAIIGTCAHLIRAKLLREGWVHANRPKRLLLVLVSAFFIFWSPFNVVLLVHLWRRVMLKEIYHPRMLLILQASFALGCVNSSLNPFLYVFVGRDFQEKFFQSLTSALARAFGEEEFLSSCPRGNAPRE
Procedure, shortened: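 Luminescent readout of beta-Gal complementation quantifies ligand-induced beta-arrestin association with GPR32 in CHO-K1 cells; 90 min compound incubation at 37 °C, detection 1 h at room temperature.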
Note: 0% is about no effect.

SMILES	activation
O=C(c1ccc2c(c1)N(Cc1ccc(F)cc1)CCS2)N1CCN(c2ccccc2)CC1	inactive: -34.3%
COc1ccc2c(c1)CC(C(=O)NCCN1CCN(c3cccc(Cl)c3)CC1)CO2 (stereo unspecified)	inactive: -14.8%
CCCc1ccc(OCC(=O)Nc2scc(-c3cccs3)c2C(=O)OC)cc1	inactive: -4.56%
NC(=O)NC1NC(=O)NC1=O (stereo unspecified)	inactive: -8.55%
Cc1nc(Oc2ccccc2C)c2oc3ccccc3c2n1	inactive: -7.51%
Cc1ccc(CNC(=O)c2sc3nc4n(c(=O)c3c2C)CCCC4)cc1	inactive: -6.57%
C#CCN1C(=O)C(O)(CC(=O)c2ccc(OC)c(OC)c2)c2cc(Br)ccc21 (stereo unspecified)	inactive: -20%
COc1ccc(C2=NN(S(C)(=O)=O)C(c3cn(-c4ccccc4)nc3-c3cccs3)C2)cc1 (stereo unspecified)	inactive: -5.7%
Cc1ccc(S(=O)(=O)N(CC(O)Cn2c3ccccc3c3ccccc32)c2cccc(C(=O)N(C)C)c2)cc1 (stereo unspecified)	inactive: 26.7%
COc1ccc(C(=O)NCC(c2ccc3c(c2)OCO3)N2CCOCC2)cc1 (stereo unspecified)	inactive: -10.7%
Cc1ccc(CN2C(=O)c3ccccc3Sc3ccc(C(=O)NCc4ccco4)cc32)cc1	inactive: -20.2%
CCN(C(=O)C1CCC(CNS(=O)(=O)c2cccc3nsnc23)CC1)c1cccc(C)c1 (stereo unspecified)	inactive: 24.3%
CC1(C)CC(=O)c2cc(C(=O)Nc3ccc(Br)cc3)c(=O)[nH]c2C1	inactive: 4.5%
COc1ccc(NC(=O)C2=C(C)Nc3ncnn3C2c2ccc(C)o2)cc1 (stereo unspecified)	inactive: -4.72%
CCCn1c(=N)c(C(=O)NCc2cccnc2)cc2c(=O)n3cccc(C)c3nc21	inactive: 8.36%
COc1cccc(-c2ccnc3c(-c4ccc(F)cc4)c(C)nn23)c1	inactive: -2.31%
Cc1ccc(Oc2nc3c(c(=O)n(Cc4ccccc4)c(=O)n3C)n2C)cc1C	inactive: 46%
Cc1oc2ncnc(N3CCOCC3)c2c1C(=O)N1CCN(c2cccc(C(F)(F)F)c2)CC1	inactive: -8.16%
O=C(Cc1ccc(NC(=O)N2CCSc3ncccc32)cc1)NCc1ccccc1	inactive: 3.58%
Cc1cc(C)cc(NC(=O)Cn2c(=O)n(C(C)C)c(=O)c3oc4ccccc4c32)c1	inactive: -5.54%
CN(C)CCOC(c1ccc(Cl)cc1)c1ccccn1 (stereo unspecified)	inactive: -3.18%
Cc1ccc(-c2nc3ccccn3c2Nc2ccc3c(c2)OCCO3)s1	inactive: -20.2%

SMILES	activation
CCOc1ccccc1NC(=O)N(C)CCc1c(C)nn(CC)c1C	inactive: -7.14%
CCOc1ccc(C2N3CC4(C(C)C)CN2CC(C(C)C)(C3)C4=O)cc1OC (stereo unspecified)	inactive: -2.34%
COc1ccc(OCC(=O)N2CCN(C(=O)c3cc(OC)c(OC)c(OC)c3)CC2)cc1	inactive: -28.9%
COc1ccc(/C=C/C(=O)N2CCC(c3nc4ccccc4o3)CC2)cc1OC	inactive: -8.52%
Cc1ccc(COc2ccc3oc(-c4ccccc4)c(C(=O)O)c3c2)cc1	inactive: 22.9%
Cc1ccc(NC(=O)c2ccc(=O)n(CC(=O)Nc3c(C)cc(C)cc3C)n2)cc1	inactive: -18.2%
COc1ccc(C(=O)N2CC(=O)Nc3ccc(C)cc3C2c2ccccc2)cc1OC (stereo unspecified)	inactive: -12.5%
CCOc1ccc(C2C=C(c3cccc(OC)c3)Nc3nnnn32)cc1 (stereo unspecified)	inactive: -1.07%
COc1ccc(-n2nc(C(=O)Nc3ccc(Br)cc3C)c3c4ccccc4n(C)c3c2=O)cc1	inactive: 2.72%
O=C1CCc2ccc(OCCCCN3CCN(c4cccc(Cl)c4Cl)CC3)cc2N1	active: 89.7%
COc1cccc(C(=O)Nc2ccc(-n3nncc3-c3ccc(Br)cc3)cc2)c1OC	inactive: -16.4%
Cc1cc(C)n2c(Nc3ccccc3C)c(-c3cccs3)nc2n1	inactive: 5.64%
CC(C)(C)c1ccc(C(=O)NNc2ncnc3c2cnn3-c2ccccc2)cc1	active: 104%
CCN(C(=O)Cn1c(SCC(=O)Nc2ccc(OC)cc2)nc2ccccc21)c1cccc(C)c1	inactive: -13.2%
COc1ccc(NC(=O)c2cc3c(=O)n(C)c4ccccc4c3s2)cc1Cl	inactive: -4.29%
CCOC(=O)C1CCCN(C(=O)c2c(C)nn(-c3ccc(F)cc3)c2-n2cccc2)C1 (stereo unspecified)	inactive: -16.2%
O=C(Nc1ccc(F)cc1)C1CCN(c2nc3ccccc3n3cccc23)CC1	inactive: -1.91%
Cc1ccc(OCCSc2nc3ccc(NC(=O)c4ccc5c(c4)OCO5)cc3s2)cc1	inactive: -1.04%
CSc1ccc(CCNC(=O)CCn2c(=O)c3cccn3c3cccnc32)cc1	inactive: -11.4%
CCCc1ccc(OC(=O)CSc2nnc(-c3cccs3)o2)cc1	inactive: 0.128%
CCS(=O)(=O)N1CCc2cc(C(=O)Nc3cccc(C)c3C)ccc21	inactive: 7.52%
CCOc1ccc(-c2cc3c(=O)n(CC(=O)NCc4ccc(OC)cc4)ccn3n2)cc1	inactive: -1.12%

SMILES	activation
O=C(NC1(C(F)(F)F)NC(=O)N(CCc2ccccc2)C1=O)c1ccccc1Cl (stereo unspecified)	inactive: 1.89%
CC(=O)c1cccc(NCc2ccccc2-c2nnc(-c3ccccc3)o2)c1	inactive: 0.77%
Cc1cccc(NC(=O)CSc2nnc(N)s2)c1	inactive: -22.8%
CCOc1ccc(S(=O)(=O)N2CCC(N3CCN(Cc4ccc(F)cc4)C(=O)C3=O)CC2)cc1	inactive: 5.82%
CCOC(=O)C(CC)Sc1ncnc2sc3c(c12)CCCC3 (stereo unspecified)	inactive: 46.8%
O=C(CCn1cccn1)NCc1ccc(Cl)cc1	inactive: -3.22%
Cc1nc(-n2nc(C)c(Cc3ccccc3Cl)c2C)sc1C(=O)N1CCC(C)CC1	inactive: -3.02%
Cc1oc2ccc(O)c(CN3CCCCCC3)c2c1C(=O)Nc1cccc(Cl)c1C	inactive: -10.9%
Cc1cccc(-n2ncc(C(=O)N3CCc4ccccc4C3)c2C2CCN(C(=O)OC(C)(C)C)CC2)c1	inactive: -17.8%
CCN(CC)CCCNC(=O)c1ccc2c(c1)N(Cc1c(F)cccc1Cl)C(=O)c1ccccc1S2	inactive: 33%
CCSc1ncc(Cl)c(C(=O)N(Cc2ccccc2Cl)C2CCS(=O)(=O)C2)n1 (stereo unspecified)	inactive: -4.28%
O=C(C1CCN(S(=O)(=O)c2cccs2)CC1)N1CCN(c2cccc(Cl)c2)CC1	inactive: 14.6%
Cc1nn2c(=O)cc(COC(=O)c3cccc(NC(=O)COc4ccc(C)c(C)c4)c3)nc2s1	inactive: -13.7%
Cc1c(-c2nsc(NC(=O)c3cccs3)n2)nnn1-c1ccc(Cl)cc1	inactive: 11.6%
N#Cc1c[nH]n2c(NC3CCCCC3)c(-c3ccccc3F)nc12	inactive: -18.2%
O=C(NCCc1ccc(Cl)cc1)C(=O)NCC(c1ccco1)S(=O)(=O)c1cccs1 (stereo unspecified)	inactive: -2.22%
COC(=O)c1nnn(CC(=O)Nc2cc(F)ccc2F)c1C(=O)OC	inactive: -0.449%
CSc1ncc2c(n1)-c1ccccc1N(Cc1ccc(F)cc1)S2(=O)=O	inactive: -3.58%
Cc1ccc(C)c(NC(=O)CCc2nc(-c3ccc(C(C)(C)C)cc3)no2)c1	inactive: 18.9%
CC(=O)Nc1ccc(OCCOCCOc2ccc(NC(C)=O)cc2)cc1	inactive: -16.7%
COc1cc(CNC(=O)CSCc2nc3cccnc3n2C2CCCCC2)cc(OC)c1OC	inactive: -21.3%
COc1cccc(NC(=O)CN(C)S(=O)(=O)c2cccs2)c1	inactive: -1.54%

SMILES	activation
CCOc1cc(C#N)c(NC(=O)c2cccc(S(=O)(=O)N3CCOCC3)c2)cc1OCC	inactive: 7.24%
O=C(CCNS(=O)(=O)c1ccc2c(c1)CCCC(=O)N2)NCc1ccccc1Cl	inactive: 4.33%
CCC(=O)N1CCc2cc(CNC(=O)Nc3ccccc3Cl)ccc21	inactive: -0.588%
CCC1CCCCN1CCCNC(=O)c1ccc2c(c1)N(Cc1ccccc1F)C(=O)c1ccccc1S2(=O)=O (stereo unspecified)	inactive: -2.64%
CC1CCN(C(=O)CSc2nc(-c3ccc(C(C)C)cc3)no2)CC1	inactive: -9.34%
CC(C(=O)NCc1ccccc1)N1Cc2ccccc2C1=O (stereo unspecified)	inactive: -16.3%
O=C(Nc1ccc([N+](=O)[O-])cc1)Nc1ccc([N+](=O)[O-])cc1	inactive: -0.583%
COc1ccc(CCNC(=O)c2cc(C)nc3c2c(C)nn3-c2ccccc2)cc1OC	inactive: -4.96%
CCc1ccc(NC(=O)c2cc(S(=O)(=O)N3CCCC3)ccc2F)cc1	inactive: 2.44%
Cc1ccc(C(=O)Nc2ccc3c(c2)N(C)C(=O)c2ccccc2S3)cc1	inactive: -2.92%
CCCS(=O)(=O)N1CC(=O)N(c2ccccc2F)C(C)(C(=O)NC2CCCCCC2)C1 (stereo unspecified)	inactive: -8.58%
CCN1CCSc2ccc(C(=O)NCc3cccc(F)c3)cc21	inactive: -14.5%
O=C(Cn1c(=O)n(-c2ccc(Cl)cc2)c(=O)c2c3c(sc21)CCC3)c1ccc(F)cc1	inactive: 10.4%
CCCCc1nn2c(=O)cc(COC(=O)c3ccc(NC(=O)c4cccs4)cc3)nc2s1	inactive: -18.3%
Fc1ccc(Nc2nc3nonc3nc2Nc2cccc(C(F)(F)F)c2)cc1	inactive: -10.1%
Cn1c(CNC(=O)CSc2n[nH]c(-c3ccccc3)n2)nc2ccccc21	inactive: -6.84%
CC(C)(C)C1CCc2c(sc(NC(=O)Cn3nnc(-c4cccc(C(F)(F)F)c4)n3)c2C#N)C1 (stereo unspecified)	inactive: 20.6%
CCCCCOC(=O)CSc1nc2sc3c(c2c(=O)n1Cc1ccccc1)CC(C)(C)OC3	inactive: -14.1%
Cc1csc2nc(COc3ccc(NC(=O)COc4ccccc4F)cc3)cc(=O)n12	inactive: 18.3%
COc1ccccc1N1CCN(C(=O)CSc2nc3ccccc3nc2Cc2ccc(F)cc2)CC1	inactive: -4.31%
